Data taken from PubChem BioAssay AID1346428 (National Center for Advancing Translational Sciences (NCATS), 2018).
Where “and” joins values, the source holds several entries; their conditions need not be identical. Equal values may be shown once. About 1,200 (2.5%) of roughly 48,000 compounds were called active. Inconclusive results (about 2%) are left out.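 Rule for the calls: active = activation of at least 60% and not above a set upper limit (about 1 call in 100 departs from these limits); inconclusive = activation of 40% to 60%, or above that upper limit; inactive = activation under 40%.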 The list shows a part of the results.

molecular target: Probable G-protein coupled receptor 32 (Homo sapiens) (UniProt O75388); assay: qHTS for Agonists of Human Resolvin D1 Receptor DRV1; details: CHO-K1 GPR32 beta-arrestin PathHunter luminescence, 90 min; at 76.9 µM; active compounds read high; zero percent set by DMSO-only wells; note: 0% is about no effect
In short: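 Beta-arrestin recruitment read-out: luminescence from complemented beta-Gal in CHO-K1 GPR32 PathHunter cells, measured 1 h after detection reagent at ambient temperature following 90 min compound exposure at 37 °C; DMSO served as basal (EC0) control.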

Chain of UniProt O75388 (O75388 whole entry, looked up): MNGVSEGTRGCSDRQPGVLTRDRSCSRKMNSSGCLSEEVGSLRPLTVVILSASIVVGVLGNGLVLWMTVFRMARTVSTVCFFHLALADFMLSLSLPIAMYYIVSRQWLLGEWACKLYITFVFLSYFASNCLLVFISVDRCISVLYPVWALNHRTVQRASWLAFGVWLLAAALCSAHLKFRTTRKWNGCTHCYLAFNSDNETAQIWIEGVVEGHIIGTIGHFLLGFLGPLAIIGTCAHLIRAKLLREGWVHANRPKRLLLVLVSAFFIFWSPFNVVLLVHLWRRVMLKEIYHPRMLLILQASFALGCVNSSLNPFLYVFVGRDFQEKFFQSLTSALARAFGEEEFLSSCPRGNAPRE

activation, inactive:
Cc1cccc2sc(N(CCCN(C)C)C(=O)COc3ccccc3)nc12 -20.6%
COC(=O)c1ccccc1NC(=O)Cn1c(=O)n(-c2cccc(C(F)(F)F)c2)c(=O)c2c(C)c(C)sc21 39.2%
O=C(/C=C\c1ccccc1)NC1CC(=O)N(c2ccccc2)C1 (configuration not stated) -13.7%
CCOC(=O)C1CCCN(C(=O)c2nn(-c3ccc(C)cc3)c(=O)c3c2c2ccccc2n3C)C1 (configuration not stated) -0.111%
CCCn1c(CCCNC(=O)c2ccccc2OC)nc2ccccc21 25.6%
CC(=O)CCCCn1c(=O)c2c(ncn2C)n(C)c1=O 12.1% and -3.06%
Cc1cc(C)c2c(n1)sc1c(=O)n(-c3cc(Cl)ccc3C)nnc12 -13.4%
CCOc1ccc(CNS(=O)(=O)c2ccc(-c3coc(C)n3)cc2)cc1OC 38.7%
CCN(Cc1ccccc1)C(=O)c1sc2nc3n(c(=O)c2c1C)CCCC3 -6.38%
CCN(CC)CCCNC(=O)c1nn(-c2ccc(C)cc2)c(=O)c2c1c1ccccc1n2C 1.27%
CCCCN(C)CCCNC(=O)Cn1ncc2c3ccccc3n(Cc3cc(C)ccc3C)c2c1=O -18.4%
COc1ccccc1CNC(=O)c1cc2c(s1)-c1ccccc1OC2 -22.3%
O=S(=O)(c1ccccc1)c1nnn2c1nc(NCc1ccccc1)c1sccc12 -7.56%
COCCNC(=O)Cn1c(=O)n(CCCCCC(=O)Nc2ccccc2)c(=O)c2sccc21 -13.6%
CCOCCCN(Cc1ccco1)C(=O)c1cc2c(=O)[nH]c3ccc(C)cc3c2s1 14.9%
CCc1ccc2c(c1)-c1ccccc1S(=O)(=O)N2CC(=O)N1CCCCC1 -21%
COc1ccc(-c2cn3c(n2)sc2cc(C(=O)NCCc4ccc(OC)cc4OC)ccc23)cc1 -3.42%
O=C(NCc1cccs1)c1ccc(Cn2c(SCc3ccc(F)cc3)nc3cccnc32)cc1 -23%
Cc1ccc(Cl)cc1N1CCN(C(=O)CN2C(=O)CSc3c2c(C)nn3-c2ccccc2)CC1 0%
COc1cccc(NC(=O)c2cnc(SCC(=O)N3CCOCC3)n(C)c2=O)c1 -0.885%
Fc1ccc(-c2cn3cc(Cc4ccccc4)sc3n2)cc1 -6.13%
COc1ccc(NC(=O)CSc2nc(-c3ccco3)cc(C(F)(F)F)n2)cc1Cl -2.35%
CCCN(CCC)C(=O)Cn1c(=O)n(-c2ccc(Cl)cc2)c(=O)c2c3c(sc21)CCCC3 -23.8%
CCc1ccc2oc(-c3cc(NC(=O)c4cc([N+](=O)[O-])ccc4N4CCOCC4)ccc3Cl)nc2c1 -0.296%
Cc1ccc(Cl)cc1N1CCN(C(=O)c2cc3c(-c4ccccc4F)nn(C)c3s2)CC1 11.2%
N#Cc1ccccc1NC(=O)CSc1nnc(N)s1 -11.3%
COc1ccc(CNC(=O)c2cnc(N3CCOCC3)c3ccccc23)cc1 -13.7%
CCCCS(=O)(=O)c1nc(-c2ccc(Br)cc2)cc(-c2ccccc2)c1C#N -28.5%
COc1ccc(-n2ncc(C(=O)N3CCOCC3)c2C2CCN(C(=O)OC(C)(C)C)CC2)cc1 -13%
Cc1cccc(NC(=O)CCc2c(C)nc3c(c(C)nn3C(C)(C)C)c2C)c1C 45.2%
O=C1COc2ccc(-c3cc(-c4ccccc4)c4c(n3)-c3cc(Cl)ccc3OC4)cc2N1 17%
C[C@@H]1CC[C@@]2(OC1)O[C@H]1C[C@H]3[C@@H]4CC[C@H]5C[C@@H](O)CC[C@]5(C)[C@H]4CC(=O)[C@]3(C)[C@H]1[C@@H]2C -25.1%
Cn1c(=O)c2sccc2n2c(CCCC(=O)NCc3ccccc3)nnc12 10.9%
CCN(C(=O)c1cn(CC)c(=O)c2cc(OC)c(OC)cc12)c1ccc(C)c(C)c1 4.34%
Cc1ccc(N2CCN(S(=O)(=O)c3ccc4[nH]c5c(c4c3)CCCCC5)CC2)c(C)c1 11%
CC1CCc2c(sc3nnn(CC(=O)Nc4ccc(Cl)cc4)c(=O)c23)C1 (configuration not stated) -19.1%
O=C(Nc1cccc(F)c1F)C1CCN(c2ncccn2)CC1 7.73%
CSc1cccc(NC(=O)Cn2ncn3c(cc4ccccc43)c2=O)c1 -7.17%
COc1ccc(-c2nc3c(c(SCC(=O)N4CCCCC4)n2)Cc2c(CO)cnc(C)c2O3)cc1 -9.35%
COC(=O)c1cc(NC(=O)c2ccc3c(c2)NC(=O)c2ccccc2S3)cc(C(=O)OC)c1 -18.4%
COc1cccc(-n2nnc(-c3nc(-c4ccccc4F)no3)c2C)c1 -9.2%
O=C(Nc1ccc(F)cc1)N1CCN(C(=O)c2nsc3ccccc23)CC1 10.3%
COC(=O)c1cc2occc2n1CC(=O)Nc1ccc(C(C)C)cc1 -11.5%
CCSc1nn(CC(=O)Nc2ccc(C(=O)OC)cc2)c(N)c1S(=O)(=O)c1ccc(C)cc1 11.4%
Cc1cccc(N2CCN(C(c3ccccc3)c3nnc(-c4ccccc4Cl)o3)CC2)c1C (configuration not stated) -30.5%
COc1ccc(OC)c(CNC(=O)CN2CC(C)Sc3ccccc32)c1 (configuration not stated) 20.6%
Cn1nnc2c(N3CCN(c4cccc(C(F)(F)F)c4)CC3)ncnc21 -3.95%
CCOc1ccccc1NC(=O)C(c1ccccc1)N1Cc2ccccc2C1=O (configuration not stated) -19.8%
Fc1ccccc1N1CCN(c2ncc3c(n2)CCN(Cc2cc(Br)cs2)C3)CC1 -7.16%
OCCN1CCN(CCCN2c3ccccc3C=Cc3ccccc32)CC1 -6.63% and -10.1%
Cc1cccc(NC(=O)CSc2nc3ccc(NC(=O)COc4ccccc4F)cc3s2)c1 -3.85%
Cc1ccc(NC(=O)C2CCCN2S(=O)(=O)c2ccc3c(c2)CCCC(=O)N3)cc1Cl (configuration not stated) 5.73%
